# Source: the supplement of paper PMC3334620
# The full ranking holds about 33,000 sequences; the median of “E-score (-0.5 to 0.5)” is about -0.012, and the highest 2% start at about 0.29. This is one part of the list.
# Target: T1, Ybr033w (UniProt P38073)
# T1 sequence: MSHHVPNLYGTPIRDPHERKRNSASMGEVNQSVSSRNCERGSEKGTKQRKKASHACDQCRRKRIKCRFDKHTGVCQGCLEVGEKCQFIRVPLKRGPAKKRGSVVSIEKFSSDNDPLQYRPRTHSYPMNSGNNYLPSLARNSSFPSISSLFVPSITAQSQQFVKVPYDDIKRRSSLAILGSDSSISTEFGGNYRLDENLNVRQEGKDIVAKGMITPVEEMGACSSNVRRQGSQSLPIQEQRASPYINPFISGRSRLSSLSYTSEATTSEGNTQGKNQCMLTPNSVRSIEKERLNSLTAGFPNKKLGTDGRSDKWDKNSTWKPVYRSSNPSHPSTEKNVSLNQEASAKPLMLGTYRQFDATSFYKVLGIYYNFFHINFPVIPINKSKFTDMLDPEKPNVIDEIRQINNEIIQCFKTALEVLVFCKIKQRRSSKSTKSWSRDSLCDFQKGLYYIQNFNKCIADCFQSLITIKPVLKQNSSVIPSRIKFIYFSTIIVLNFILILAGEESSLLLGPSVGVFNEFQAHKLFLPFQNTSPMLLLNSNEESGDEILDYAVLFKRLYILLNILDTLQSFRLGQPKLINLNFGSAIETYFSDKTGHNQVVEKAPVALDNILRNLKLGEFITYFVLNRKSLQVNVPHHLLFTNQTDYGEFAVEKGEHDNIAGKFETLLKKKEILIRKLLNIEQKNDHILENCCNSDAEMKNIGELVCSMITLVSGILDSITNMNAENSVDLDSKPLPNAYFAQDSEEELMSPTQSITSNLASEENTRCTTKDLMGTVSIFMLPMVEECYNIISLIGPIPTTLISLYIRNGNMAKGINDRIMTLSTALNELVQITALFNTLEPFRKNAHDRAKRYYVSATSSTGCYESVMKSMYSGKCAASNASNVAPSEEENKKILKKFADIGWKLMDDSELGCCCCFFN
# Assay: PBM E-score (8-mer binding enrichment) (E-score (-0.5 to 0.5)); higher = stronger / more preferred TF binding; most listed sequences are background and not binding sites
# Settings: protein concentration: 200 nM; construct: GST-full length
# In short: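 Universal all-10-mer Agilent arrays, fresh or stripped once, were converted to double-stranded form by primer extension. GST-tagged yeast transcription factors from PURExpress in vitro transcription/translation, full-length or DNA-binding domain only, were applied at about 100-200 nM and detected with fluorescent anti-GST. After masliner normalisation, the Universal PBM Analysis Suite scored each ungapped eight-base word together with its reverse complement by E-score.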
row,Sequence,PBM E-score
1,AGCACATG,0.0824
2,ATATGCAT,0.02
3,ACCTTTAC,-0.0424
4,GGCGGTGA,-0.163
5,GCAGTCGA,-0.0467
6,ACGGCTAA,0.0465
7,TATCAACA,0.196
8,CGCGCCCA,-0.154
9,TAACTTAA,0.283
10,GAGACAAA,-0.0572
11,CTTAATAA,0.182
12,AACAGTGC,0.0632
13,CACGAGTG,-0.286
14,GAAATAAC,0.159
15,CTATGGAG,-0.0955
16,TATTCTGA,0.0151
17,AAGTTTAC,0.154
18,CTAGACGA,-0.0898
19,ATAGTTTA,0.107
20,AGTACGGC,-0.0831
21,GCTTGAGA,-0.123
22,AGACTGGG,-0.174
23,ACACCGGG,-0.143
24,GAATTGCA,0.039
25,CCAGCTCC,-0.229

row,Sequence,PBM E-score
1,ATACCTAC,0.05
2,GATGACCC,-0.208
3,ACTCGAAC,-0.0528
4,AGACTGCG,-0.23
5,CTTCACTA,0.0917
6,TAGTGCCA,-0.132
7,ACCGAGGA,-0.0867
8,ACGCTAGA,-0.102
9,AGTATGTA,0.0368
10,CCATACGA,0.0671
11,ACAATCTG,0.0774
12,ATCAAGTA,0.227
13,TAGTAAAA,0.247
14,AAGCAGTC,-0.0621
15,TATCCTAA,0.198
16,CGACTGTA,-0.311
17,ACACCGGC,-0.144
18,AAAGACTT,0.0525
19,ACTGAGCT,0.0554
20,CTGAGATA,0.0588
21,GTCAATGA,-0.0551
22,AAAATGCG,0.139
23,CAAGGCGC,-0.148
24,GGGAAAGA,-0.00714
25,TAAAGATA,0.213

row,Sequence,PBM E-score
1,GGGTGCAA,0.0248
2,GGAGCATA,-0.0292
3,GTTTTCAA,0.146
4,ACTTGGTC,0.233
5,ACTATGGG,-0.0842
6,CACCGTTC,-0.12
7,CCGCCACG,-0.188
8,AGTCGTCC,-0.0173
9,AAGCATAC,0.0655
10,ACTGCCAC,-0.0586
11,GGCGCTGA,0.0187
12,ATCATGGC,0.0203
13,ACATGTCG,0.191
14,ATAGGAAG,0.0807
15,ATGCCAGG,-0.222
16,AGGAACTA,0.131
17,CGTGATCA,-0.0179
18,AATCGTTA,0.111
19,ATATGCCC,-0.0433
20,TCCACGGA,0.102
21,ATAAAGCA,0.193
22,ATATCAAG,0.253
23,CCCCTGAG,-0.264
24,AGATGTAA,0.161
25,CATACAGG,-0.13

row,Sequence,PBM E-score
1,ACTGAGGG,-0.311
2,CTATCATC,0.2
3,CGGTCCAA,-0.274
4,TTCGCGAA,0.193
5,CATAGATA,0.155
6,CGGAAAGC,0.0357
7,ATCTGCCC,-0.183
8,AAACTTAG,0.176
9,TCGATACA,0.298
10,ATGGAAGC,0.04
11,CAGACATC,0.0217
12,AATGCGGG,0.156
13,CCGATAAC,0.135
14,ACAGTGAT,0.105
15,ATTAGGAG,0.108
16,GGCGGTAA,0.0971
17,GTTTTGAA,0.213
18,AAGGTTCC,0.0932
19,ATCGCACC,-0.0825
20,CCAAGTGA,-0.0871
21,GGCGTACC,-0.061
22,TACTTTGA,0.155
23,TAACGGTA,0.102
24,GGGTCCGA,-0.206
25,CCCCTAAA,-0.365

row,Sequence,PBM E-score
1,CCTGATAA,0.0793
2,CATGGAGA,0.0398
3,CCAGGAGA,0.0757
4,GGATCGCA,-0.0884
5,CAGGCTGC,-0.118
6,GTATTAAA,0.283
7,CATCGCTC,-0.186
8,CCTAACAA,0.165
9,GTACTCAC,0.0798
10,TTGTCAAA,0.0834
11,TAGGTAGA,0.0806
12,AAGTAAAG,0.05
13,CCTTCAAA,0.0448
14,ATTCCCAG,0.137
15,GCAAATAA,0.322
16,ATATGCTA,0.172
17,CGTCTCTA,-0.108
18,AACCTTCG,0.106
19,CTGGCGAC,-0.17
20,AACCGTCA,0.0483
21,CTTGAATA,0.155
22,CCTCCCAA,-0.191
23,CAAATTGC,0.0369
24,GGAGGAGA,-0.121
25,GAACTAGA,0.0565

row,Sequence,PBM E-score
1,ACGCTGCT,-0.205
2,ACTAGCAC,-0.0462
3,CCGGTGAC,-0.192
4,ATTTTATA,0.309
5,AGTTGTAA,0.145
6,CTCCGATA,0.0359
7,AGCAATGG,-0.129
8,GCTTCTAC,0.0543
9,AGGACAGA,-0.0311
10,GACCAGTC,-0.0986
11,ATGGTGAG,-0.0822
12,GTGCGACA,-0.235
13,AGGAATGA,0.207
14,ACGCAAGT,-0.0108
15,AGTTAGTC,0.119
16,CATGGCAC,-0.195
17,CGCGGGAC,-0.12
18,CCACTCGA,-0.0674
19,AACATTGA,0.136
20,CGTGAGAA,-0.0558
21,CGTATCGA,-0.0271
22,CGTGGGCA,-0.176
23,CACTTCCG,-0.125
24,ACTTCCCG,0.137
25,AGTTAGGA,0.0659

row,Sequence,PBM E-score
1,GGCTAGTA,0.137
2,ACCCTCGT,-0.179
3,CATGGTAA,0.078
4,AATTGCGC,0.125
5,CTTTCCAC,0.0449
6,ACGTATAC,0.181
7,CAACAATA,0.151
8,ACCCCCCT,-0.376
9,AGGATTCA,0.114
10,TACTGTCA,0.00818
11,CTACCGAA,0.109
12,CTGGAGTC,-0.00104
13,CTCCAAGA,0.0931
14,CGCCTAAC,-0.0857
15,GCTAGTGA,0.13
16,AGTACCAC,-0.105
17,ACCCTCAT,-0.271
18,CGGCGCAG,-0.112
19,CCGGTTAG,-0.102
20,ATACTCCG,0.245
21,TAACAGGA,-0.0535
22,AACGAGTG,0.0515
23,CACGCATC,-0.0486
24,CGAAATGC,0.00684
25,GCCGATAC,-0.113

row,Sequence,PBM E-score
1,AACGTTCC,-0.0892
2,GGAGTTTA,0.246
3,CTTGAGAA,0.0578
4,ATTTCGTA,0.0835
5,ATACCAAA,0.128
6,CCGATTTC,-0.0712
7,AACTTCTC,0.103
8,CCCCGCCC,0.0342
9,ACAGATAG,-0.0808
10,ATGCACTC,-0.0897
11,GCTGGGTA,-0.15
12,CCATTGAG,0.0954
13,ACTTATGG,-0.0148
14,AACAGTAT,0.147
15,GTTGGACA,-0.0693
16,ATAGAAAG,0.0673
17,ATTTATTG,0.0954
18,ATACCGCG,0.00436
19,GAGCGCTC,-0.212
20,TACTATGA,0.199
21,AGTCGGAC,0.00348
22,GACCATCA,-0.0102
23,CAAGTTGA,0.113
24,CTGCCGCC,-0.325
25,GTTGCCTA,0.0283

row,Sequence,PBM E-score
1,AAAGTTAA,0.323
2,ACTTATAC,0.244
3,AACGGCAG,-0.0412
4,AAGTAAGT,0.118
5,GATCTCGC,0.017
6,CAATTCTC,0.0403
7,ATTGTGTC,0.179
8,CCCATAAG,-0.165
9,AATGGCTA,0.12
10,ACCCTAGG,-0.0462
11,AGCCTCCT,-0.17
12,CCAAAAGA,0.206
13,GGGTATGA,0.0197
14,GTTAGCAA,0.233
15,CACCGACG,-0.0189
16,AGGCGAGC,-0.174
17,ATATCCAC,0.145
18,AAATGAGC,0.0658
19,AGGCGTAT,0.179
